# The campaign covered roughly 310,000 compounds. About 14,000 (4.5%) showed an effect of 50% or more. The effect is printed as a negative number. This is one part of the list.
# Biological target: human ether-à-go-go-related gene (hERG) potassium channel (human, UniProt Q12809)
# Assay: primary screen, population patch clamp on CHO cells stably expressing hERG
# 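Also: peak tail current of the secondary pulse compared with the same well before compound.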
# Chain of human ether-à-go-go-related gene (hERG) potassium channel (Q12809 whole entry, looked up): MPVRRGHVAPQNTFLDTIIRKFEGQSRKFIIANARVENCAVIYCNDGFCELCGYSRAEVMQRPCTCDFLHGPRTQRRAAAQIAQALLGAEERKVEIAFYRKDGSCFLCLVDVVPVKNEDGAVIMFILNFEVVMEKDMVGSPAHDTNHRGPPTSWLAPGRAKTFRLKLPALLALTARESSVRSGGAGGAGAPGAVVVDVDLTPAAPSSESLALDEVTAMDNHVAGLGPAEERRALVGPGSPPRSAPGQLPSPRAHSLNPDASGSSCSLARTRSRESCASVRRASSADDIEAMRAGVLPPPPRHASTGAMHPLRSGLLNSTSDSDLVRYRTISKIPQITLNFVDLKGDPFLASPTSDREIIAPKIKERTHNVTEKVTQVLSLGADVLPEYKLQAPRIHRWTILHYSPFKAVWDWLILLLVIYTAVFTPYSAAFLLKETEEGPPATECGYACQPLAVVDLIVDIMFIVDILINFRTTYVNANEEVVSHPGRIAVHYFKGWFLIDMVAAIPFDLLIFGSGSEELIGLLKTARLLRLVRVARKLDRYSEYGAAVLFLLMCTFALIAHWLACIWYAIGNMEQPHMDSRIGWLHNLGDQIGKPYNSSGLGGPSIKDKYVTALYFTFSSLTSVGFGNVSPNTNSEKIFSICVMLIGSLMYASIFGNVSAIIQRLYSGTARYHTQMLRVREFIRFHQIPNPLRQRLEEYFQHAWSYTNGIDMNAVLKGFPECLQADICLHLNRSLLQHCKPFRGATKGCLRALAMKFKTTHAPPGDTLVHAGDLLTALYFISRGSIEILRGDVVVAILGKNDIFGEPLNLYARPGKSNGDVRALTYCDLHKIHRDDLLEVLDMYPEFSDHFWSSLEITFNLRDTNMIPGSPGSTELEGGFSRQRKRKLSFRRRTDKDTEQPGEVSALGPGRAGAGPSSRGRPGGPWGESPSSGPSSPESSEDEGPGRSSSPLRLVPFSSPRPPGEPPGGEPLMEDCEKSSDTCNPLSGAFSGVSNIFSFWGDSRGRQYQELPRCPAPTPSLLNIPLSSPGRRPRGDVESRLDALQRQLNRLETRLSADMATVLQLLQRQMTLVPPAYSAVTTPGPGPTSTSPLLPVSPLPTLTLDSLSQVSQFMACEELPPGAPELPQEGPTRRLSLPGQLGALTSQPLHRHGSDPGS
row,Compound,"hERG current change (%, negative = inhibition) at 10uM [%]"
1,O=C(C1CC2C=CC1C2)N1CCN(c2ccccc2)CC1 (stereo not drawn),2.78
2,Cc1cc(C)n(C(=O)CSc2nnc(SCC(=O)n3nc(C)cc3C)s2)n1,0.209
3,O=C(NNc1nc2cc3c(cc2s1)OCO3)c1cccc(F)c1,7.44
4,Cc1sc2ncn(CC(=O)NCCN3CCOCC3)c(=O)c2c1S(=O)(=O)N1CCC(C)CC1,19.1
5,O=C1OCCC1S(=O)(=O)c1ccc2ccccc2c1 (stereo not drawn),-6.35
6,CCCCN(C(=O)CSc1nnc(-c2ccccc2OC)n1C)c1c(N)n(Cc2ccccc2)c(=O)[nH]c1=O,15.1
7,CN(Cc1ccccc1)CC1CCCN(CCc2ccccc2F)C1 (stereo not drawn),-49.9
8,Cn1c(=O)oc2cc(S(=O)(=O)NCCC(=O)Nc3ccc4c(c3)OCCO4)ccc21,2.4
9,O=C1C(=O)N(c2ccccn2)C(c2cccc(F)c2)/C1=C(/O)c1ccccc1 (stereo not drawn),3.75
10,CCCCn1c(-c2ccc([N+](=O)[O-])cc2)n[nH]c1=S,-5.42
11,Cc1cc2cc(CNC(=O)Nc3ccc(Cl)c(Cl)c3)ccc2n1C,2.71
12,O=C(O)COc1ccccc1/C=C1\C(=O)NC(=O)N(CCC2=CCCCC2)C1=O,11.1
13,CC(C)c1ccc(C(O)P(=O)(OC2CCCCC2)OC2CCCCC2)cc1 (stereo not drawn),5.37
14,NS(=O)(=O)c1cc(C(=O)N2CCc3ccccc32)c(Cl)cc1Cl,-18.5
15,CCOCCCNS(=O)(=O)c1ccccc1,22.1
16,Cc1ccc(NC(=O)CCS(=O)(=O)c2ccc3c(c2)NC(=O)C(C)S3)nc1 (stereo not drawn),7.69
17,Cc1c(Cc2ccccc2)sc(N)c1C(N)=O,-6.37
18,CN(C)S(=O)(=O)Nc1cccc(-c2cn3c(n2)SCC3)c1,11.2
19,CC(OC(=O)c1ccccc1C(=O)N(C)c1ccccc1)C(=O)Nc1ccc(C(N)=O)cc1 (stereo not drawn),-4.36
20,Cc1ccccc1/C=C/c1nc2ccccc2c(=O)n1CCc1ccccc1,3.43
21,CCN(CC)S(=O)(=O)c1ccc(C(=O)N2CCN=C2SCc2cccnc2)cc1,-8.04
22,O=c1c2[nH]c3ccc(Cl)cc3c2ncn1CCN1CCCCC1,-68
23,CCc1cc(C(c2ccccn2)N2CCN(C)CC2)c(NC(=O)c2ccccc2)s1 (stereo not drawn),-59.1

row,Compound,"hERG current change (%, negative = inhibition) at 10uM [%]"
1,Cc1ccc(C(=O)c2oc3ccccc3c2N)cc1,-7.77
2,Clc1ccc(C(c2nnnn2C2CCCC2)N2CCSCC2)cc1 (stereo not drawn),-24.4
3,COc1cc2c(cc1OC)CN(C(=O)c1ccco1)CC2,16.2
4,CN1Cc2cccnc2N(C)Cc2cc(Cl)ccc21,-11.8
5,CCOC(=O)CCc1c(C)nc2ncnn2c1C,-12.9
6,CCNc1nc(CC)nc2c1oc1ccccc12.Cl,-11.5
7,Cn1c(=O)c2c([nH]c(=O)n2C)n(C)c1=O,29.7
8,NNC(=S)Nc1cc(S(=O)(=O)N2CCOCC2)ccc1N1CCOCC1,9.82
9,CC1(c2ccc3c(c2)OCCCO3)NC(=O)N(CC(=O)Nc2cccc(C#N)c2)C1=O (stereo not drawn),-1.95
10,COc1ccc(F)cc1S(=O)(=O)N1CCN(c2ccccn2)CC1,9.28
11,CCS(=O)(=O)N1Cc2ccccc2CC1C(=O)Nc1ncc(C)s1 (stereo not drawn),6.32
12,O=[N+]([O-])c1ccc(CN2CCN(c3ncccn3)CC2)cc1,-32.2
13,CC(OC(=O)CN1C(=O)c2ccccc2C1=O)C(=O)c1ccccc1 (stereo not drawn),-10.6
14,Cc1onc(C(=O)N2C(C)CCCC2C)c1[N+](=O)[O-] (stereo not drawn),7.46
15,COc1ccc(NC(=O)CCNS(=O)(=O)c2ccc(Cl)c([N+](=O)[O-])c2)cc1S(N)(=O)=O,15.6
16,COc1ccc(-n2c(Cc3cccn3C)nnc2SCC(=O)Nc2cccc(F)c2)cc1,-54.3
17,Cc1ccc(C=Nc2cccnc2N)cc1,7.96
18,COc1cc(/C=N/n2cnnc2)ccc1OCC(=O)N1CCOCC1,20.4
19,O=C(CN1C(=O)c2ccccc2C1=O)Nc1ccccc1N1CCOCC1,3.78
20,CNc1nc(-c2ccc3c(c2)CCN3C(=O)c2ccccc2C)cs1,-14.4
21,O=C(CCC(=O)c1ccccc1)NCc1cccc(C(F)(F)F)c1,4.89
22,COc1ccccc1C1=NOC(Cn2c(NCCCO)nc3c2c(=O)n(C)c(=O)n3C)C1 (stereo not drawn),-4.28
23,COc1ccc(NC2=CC(=O)CC(C)(C)C2)cc1,7.6

row,Compound,"hERG current change (%, negative = inhibition) at 10uM [%]"
1,O=C(CCNC(=O)N1C[C@H]2C[C@@H](C1)c1cccc(=O)n1C2)Nc1ccc(F)cc1,20.6
2,CC(C)Oc1ccc(C(=O)OCC(=O)N2CCCc3ccccc32)cc1,6.85
3,CCCCNC(=O)Nc1ccon1,5.29
4,CCOc1ccc(C(=O)OCC(=O)NC(C)C)cc1,22.3
5,CC(=NCCC1=CCCCC1)c1c(O)[nH]c(=O)[nH]c1=O,-3
6,CC(=O)c1sc(NC(=O)C(C)(C)C)nc1C,11.6
7,COc1ccc(C(=O)N2CCCCC2C(=O)Nc2ccc(-n3nc(C)cc3C)cc2)o1 (stereo not drawn),-13.8
8,CCN(CC)CCN1C(=O)C(=O)/C(=C(/O)c2ccncc2)C1c1ccccc1 (stereo not drawn),18.4
9,COc1cc(NCC(=O)Nc2cccc(S(=O)(=O)N3CCCCC3)c2)cc(OC)c1OC,-13.9
10,Cc1ccc(NC(=O)CCN2CCN(C/C=C/c3ccccc3)CC2)cc1C.Cl,-71.8
11,COCCn1c(SCC(=O)NC2CCCCC2)nnc1-c1ccco1,5.35
12,O=C(Cn1cc(C(F)(F)F)ccc1=O)N/N=C/c1ccc(Cl)cc1Cl,-3.24
13,CCc1ccc(C(=O)CSc2nc(C)cc(=O)[nH]2)cc1,8.79
14,CCOc1ccc(NC(=O)CN(C)C(=O)c2ccc(C)o2)cc1OCC,25.5
15,O=C(N/C(=C\c1cccnc1)C(=O)N1CCC(O)CC1)c1ccccc1,21.9
16,COc1cccc(OCc2cc(C(=O)N(C)Cc3nccn3C)no2)c1,2.52
17,CC(Oc1ccccc1)C(=O)Nc1cccc(-c2nc3ccccc3[nH]2)c1 (stereo not drawn),-35.8
18,Cn1cnc(S(=O)(=O)Nc2ccccc2C(=O)NCC2CC2)c1,13.7
19,COc1ccc(C2(NC(C)=O)CCN(Cc3cccnc3)CC2)cc1,11.1
20,CC1CCCCN1S(=O)(=O)c1ccc(S(=O)(=O)N2CCN(C)CC2)cc1 (stereo not drawn),16.2
21,CC(=O)CSc1nnc(Cc2ccc3c(c2)OCO3)o1,4.9
22,CCCn1c(N)c(N(CCOC)C(=O)c2cccc(F)c2)c(=O)[nH]c1=O,22.9
23,COCCCn1c(SCC(=O)Nc2cccc(C)n2)nnc1-c1ccco1,-69.3

row,Compound,"hERG current change (%, negative = inhibition) at 10uM [%]"
1,O=C(/C=C/c1cccc(Cl)c1)Nc1ncccn1,-12
2,COc1cc(C(=O)N2c3ccccc3CCC2C)cc(OC)c1OC (stereo not drawn),5.32
3,CCOC(=O)Cc1c(C)c2c(C)nn(-c3ccccc3)c2oc1=O,-14.6
4,Cc1ccc2ncc(S(=O)(=O)c3ccccc3)c(N3CCCCC3C)c2c1 (stereo not drawn),18.7
5,COc1cc(C(=O)N2CCN(Cc3ccc4c(c3)OCO4)CC2)cc(OC)c1OC.O=C(O)C(=O)O,-23.5
6,O=C(COC(=O)CCC1CCCC1)Nc1ccccc1Sc1ccccc1,22.1
7,CCNC(=O)NC(=O)C(C)SCc1ccccc1C (stereo not drawn),16.9
8,CC(NC(=O)CN1CCN(c2ncccn2)CC1)c1ccc(F)cc1 (stereo not drawn),-8.03
9,COc1ccc(C)cc1-n1nnnc1SCC1CCCO1 (stereo not drawn),-11.9
10,CCCC(C)NC(=O)CN1C(=O)c2cccc3cccc1c23 (stereo not drawn),1.42
11,CCC1(CC)Cc2ccccc2-c2nc(CN3CCOCC3)[nH]c(=O)c21,0.538
12,Cc1cccc(N(Cc2ccccc2)C(=O)c2ccc(C)c(S(=O)(=O)N3CCOCC3)c2)c1,-17.6
13,O=C(Nc1ccccc1NC(=O)c1ccco1)c1ccco1,-9.67
14,COC(=O)C1=C(C)NC(=O)CC1c1ccc(F)c(Br)c1 (stereo not drawn),-7.19
15,CC(=O)c1cccc(OCc2cc(C(=O)N(C)Cc3ccc(C)o3)no2)c1,-3.16
16,COc1cccc(OC)c1C(=O)Nc1ccc(Cc2ccncc2)cc1,8.86
17,Cc1cccc(-c2cccc(NC(=O)C3CCCN(C(=O)c4ocnc4C)C3)c2)c1 (stereo not drawn),-53
18,Cc1[nH]n(-c2cccc3ccccc23)c(=O)c1/C=N/NC(=O)c1cccc([N+](=O)[O-])c1,-11.8
19,COc1ccc(Cl)cc1NC(=S)NCCc1ccc(S(N)(=O)=O)cc1,5.52
20,CC(=O)Nc1ccc(OC(=O)C(CCS(C)(=O)=O)N2C(=O)c3ccccc3C2=O)cc1 (stereo not drawn),10.7
21,CCOC(=O)CC1=C(C(=O)OCC)C(c2cccs2)C(C#N)=C(N)O1 (stereo not drawn),5.17
